Binding signal data for 172 sequences are collected here from article PMC10668032.

The list shows a part of the results. At the low end of the ranking, values are background and their order means little.

The test has as its target SIX1-Q177R homeodomain (UniProt Q15475). In words: universal protein binding microarray. The settings on record: Universal all-10-mer PBM (8x60K, AMADID 030236), 300 nM GST-tagged protein, Alexa Fluor 488 anti-GST; buffer, salt, pH and temperature not stated; high values mean tight binding; most listed sequences are background and not binding sites; double strand, one strand shown.
As for CAGTCGCG, the binding signal was 0.00999 E-score.

On to AACGGAAC, for which the binding signal is -0.198 E-score.

Turning to CTCGATAA, the binding signal is -0.0572 E-score.

Consider CAATCATA, for which the binding signal was 0.0387 E-score.

Take GATCGAGC: the binding signal was -0.0139 E-score.

Take ACTCCGAC: the binding signal was determined as 0.219 E-score.

With CCTGATAC, the binding signal turned out to be 0.202 E-score.

In the case of CAGTCTAG, the binding signal is -0.218 E-score.

Consider CTCAGACA, for which the binding signal is 0.189 E-score.

As for CAGAGGGG, the binding signal is 0.193 E-score.

On to AAAAACAA, for which the binding signal was -0.266 E-score.

For CAAGGAAC, the binding signal is -0.113 E-score.

In the case of AGTACCCC, the binding signal is 0.287 E-score.

As for CGGATGGC, the binding signal was -0.00405 E-score.

ACTGTAGA: the binding signal is -0.0859 E-score.

Regarding AAGGTGAT, the binding signal was -0.134 E-score.

As for GGGTGCGA, the binding signal was 0.181 E-score.

For the sequence AACTGGGT, the binding signal amounted to 0.0752 E-score.

With AATGTAGC, the binding signal was -0.206 E-score.

As to CCATATAA, the binding signal was 0.0149 E-score.

For AGCGTACC, the binding signal turned out to be 0.0193 E-score.

With ACCTCACG, the binding signal stood at 0.153 E-score.

As for GGTAGATA, the binding signal was determined as 0.0686 E-score.

Take ACCACGGG: the binding signal turned out to be 0.138 E-score.

For CGTGTATA, the binding signal is 0.367 E-score.

On to AAGCATGG, for which the binding signal is -0.156 E-score.

Take TCTCCTCA: the binding signal was -0.17 E-score.

In the case of CAGGTAAG, the binding signal was -0.0841 E-score.

As to CGTAAACA, the binding signal amounted to 0.173 E-score.

With CGATCGTA, the binding signal was 0.00823 E-score.

On to CACCCACG, for which the binding signal is 0.275 E-score.

With ACGAGGAG, the binding signal was -0.0338 E-score.

Take ACTTACTC: the binding signal stood at 0.179 E-score.

For the sequence AGGAGGTA, the binding signal was determined as 0.0817 E-score.

As for TCAGTAAA, the binding signal is -0.181 E-score.

Regarding CCCCAGAG, the binding signal was determined as 0.018 E-score.

On to GACTTCGC, for which the binding signal was -0.165 E-score.

As to AGAATGGA, the binding signal was -0.116 E-score.

Regarding ATCAGACC, the binding signal was -0.158 E-score.

For ACTGCGCA, the binding signal is -0.129 E-score.

In the case of CCTACATC, the binding signal was -0.174 E-score.

On to ACTCGGTG, for which the binding signal was 0.368 E-score.

On to CAGCGTGC, for which the binding signal was -0.00421 E-score.

CGCGCGGC: the binding signal turned out to be 0.0441 E-score.

CACGAACC: the binding signal was 0.111 E-score.

As to ACAGCAAT, the binding signal is -0.0958 E-score.

As to TCATGAGA, the binding signal was -0.13 E-score.

Consider ACATGTCA, for which the binding signal was -0.0451 E-score.

As to AATAACAA, the binding signal is -0.316 E-score.

With ATACTCAC, the binding signal came out at 0.0173 E-score.

For the sequence AATCTAGG, the binding signal was -0.04 E-score.

In the case of CCACACAG, the binding signal turned out to be 0.0766 E-score.

In the case of GAATGCTC, the binding signal was -0.251 E-score.

On to CTCCGAAA, for which the binding signal is -0.127 E-score.

CAACTATG: the binding signal is -0.0873 E-score.

Take GGTCATTA: the binding signal was 0.00064 E-score.

As to ACGCCGCT, the binding signal amounted to 0.0592 E-score.

As for ATCTTCTG, the binding signal was -0.223 E-score.

For TCGTGACA, the binding signal was found to be 0.329 E-score.

As for GTACTTCA, the binding signal is -0.163 E-score.

As to CGCGGTCA, the binding signal is -0.126 E-score.

Take GGAATAAC: the binding signal stood at 0.0411 E-score.

As to CCCGAACC, the binding signal is 0.198 E-score.

Turning to CACATCCG, the binding signal is -0.00454 E-score.

As to GAATCGGA, the binding signal was -0.157 E-score.

In the case of GGTTAGTA, the binding signal was found to be 0.124 E-score.

On to ATAGTGTG, for which the binding signal was 0.188 E-score.

As to TAAAACAA, the binding signal is -0.105 E-score.

On to AACCGGCG, for which the binding signal is 0.114 E-score.

For the sequence AGAAGTAA, the binding signal is -0.25 E-score.

Take ACATGCGG: the binding signal was -0.208 E-score.

With AATTATAC, the binding signal amounted to 0.0534 E-score.

With TAATCACA, the binding signal turned out to be 0.213 E-score.

For ACCAAGAC, the binding signal came to 0.11 E-score.

For the sequence ACAGGTCG, the binding signal was -0.0862 E-score.

As to GGAGGGAC, the binding signal was -0.0924 E-score.

CGAAATAG: the binding signal was -0.222 E-score.

As for CCGGAAGC, the binding signal was -0.0228 E-score.

As for CCCCCCGA, the binding signal is 0.314 E-score.

As for CAGGCGAA, the binding signal is -0.124 E-score.

Take ACGCTACT: the binding signal was 0.0585 E-score.

As to AAGGAACG, the binding signal is -0.0739 E-score.

Turning to GGTGAATA, the binding signal was -0.158 E-score.

With CGGTCTTA, the binding signal is -0.105 E-score.

For GATCCATA, the binding signal is 0.056 E-score.

With ATTCTCTA, the binding signal was -0.0866 E-score.

As to TCGAATAA, the binding signal is -0.284 E-score.

TGCCCCAA: the binding signal is -0.161 E-score.

For the sequence CCCTCAAC, the binding signal worked out at 0.0359 E-score.

In the case of CGCGGCCA, the binding signal is -0.0655 E-score.

Regarding AGCTCGTA, the binding signal is -0.19 E-score.

ACTAAACA: the binding signal was 0.0451 E-score.

Consider CTACGCGC, for which the binding signal was -0.115 E-score.

ACCCAGCG: the binding signal amounted to 0.168 E-score.

Consider ATTTATGG, for which the binding signal was -0.0409 E-score.

In the case of ACGCGCCT, the binding signal was -0.101 E-score.

Consider ATAGTGGG, for which the binding signal is 0.0484 E-score.

In the case of CGTGCGCC, the binding signal stood at 0.0513 E-score.

With GACGCACA, the binding signal turned out to be 0.0773 E-score.

Consider GTTGAGTA, for which the binding signal was found to be 0.022 E-score.

For ACCTTGTG, the binding signal stood at 0.175 E-score.

Take CCTAGGCC: the binding signal is -0.159 E-score.

On to CGCCGTCA, for which the binding signal is -0.0897 E-score.

Turning to AGTACGGG, the binding signal is -0.0753 E-score.

As to AACATAAG, the binding signal was -0.158 E-score.

Consider ATAGGCCG, for which the binding signal is 0.0265 E-score.

On to CCAAGCTA, for which the binding signal is -0.199 E-score.

With GCGACGGA, the binding signal was -0.0502 E-score.

For the sequence CCACAGGA, the binding signal was -0.0176 E-score.

As to TAACGTAA, the binding signal was -0.0222 E-score.

For ATTTATAC, the binding signal was 0.0118 E-score.

Consider CCGTGGAG, for which the binding signal was -0.00471 E-score.

For ATCGGGAC, the binding signal is -0.00721 E-score.

Regarding ACAGTTGA, the binding signal is -0.137 E-score.

Consider GACCGAGA, for which the binding signal is -0.0142 E-score.

Take CACGGACA: the binding signal came out at 0.298 E-score.

For the sequence GAGCAGAA, the binding signal is -0.209 E-score.

For the sequence CACGTTTC, the binding signal stood at 0.0249 E-score.

CGGATGTA: the binding signal is -0.0885 E-score.

For GCTCTTAA, the binding signal is -0.0787 E-score.

With TCTTCCAA, the binding signal is -0.0874 E-score.

Regarding CCACTGCA, the binding signal was 0.0524 E-score.

As to AGGCTCGC, the binding signal is -0.175 E-score.

Turning to ATCGATTA, the binding signal came out at 0.164 E-score.

For the sequence ACTCCATC, the binding signal was 0.266 E-score.

For the sequence ATAGTTTA, the binding signal was -0.16 E-score.

On to AAATGGTG, for which the binding signal was found to be 0.289 E-score.

Take AGTACGAT: the binding signal is -0.0183 E-score.

As for AAGCTCCA, the binding signal was -0.14 E-score.

With CTTACACA, the binding signal was determined as 0.231 E-score.

As for GTAGCTAC, the binding signal stood at 0.0399 E-score.

AGGTTCTA: the binding signal is -0.08 E-score.

In the case of CGACGACG, the binding signal was -0.261 E-score.

On to CGGTGCAC, for which the binding signal was determined as 0.296 E-score.

As to TACGGCTA, the binding signal was -0.0432 E-score.

As for GCGTTTGA, the binding signal is -0.169 E-score.

As to CGACCACC, the binding signal is 0.0861 E-score.

As to GATAGCGA, the binding signal was -0.16 E-score.

Take AATATCGA: the binding signal was -0.0911 E-score.

Take CCCGGCGA: the binding signal was determined as 0.117 E-score.

Regarding TACAAGGA, the binding signal was -0.0504 E-score.

As for ACCCTTCG, the binding signal was determined as 0.142 E-score.

ATTCATAA: the binding signal is -0.187 E-score.

For AGAGTACA, the binding signal was 0.186 E-score.

As to AGTCAATG, the binding signal is -0.0982 E-score.

Take CATAATTA: the binding signal was -0.0653 E-score.

On to GACCGCCC, for which the binding signal was -0.176 E-score.

For AAAACCTC, the binding signal was -0.132 E-score.

ATAAGGGG: the binding signal worked out at 0.02 E-score.

CTGCTTAC: the binding signal was -0.048 E-score.

As for CCCTAGTA, the binding signal stood at 0.18 E-score.

In the case of GGTCGGAC, the binding signal is 0.0312 E-score.

Turning to CCGTAGCA, the binding signal stood at 0.0136 E-score.

Take GGGGCTAC: the binding signal was -0.0569 E-score.

On to GCGGCGAC, for which the binding signal was -0.0624 E-score.

Take AAATCGTT: the binding signal is -0.114 E-score.

Take ACGATGAC: the binding signal was -0.0343 E-score.

Take TTGAACAA: the binding signal is -0.0106 E-score.

In the case of CGAGGGCC, the binding signal was -0.0172 E-score.

As for GGGAAAAA, the binding signal was -0.273 E-score.

In the case of CTAATGAG, the binding signal was -0.168 E-score.

With AGACTCAT, the binding signal is -0.137 E-score.

For the sequence ACCCACAA, the binding signal was 0.151 E-score.

With CCTGCTGA, the binding signal was determined as 0.0189 E-score.

For ATGCCTGA, the binding signal is -0.189 E-score.

On to ACCTATGG, for which the binding signal amounted to 0.106 E-score.

Consider ACTCCTGC, for which the binding signal is 0.158 E-score.

Regarding AAAAACTG, the binding signal was -0.053 E-score.

With ATCAGGAG, the binding signal is 0.019 E-score.

In the case of ACGCAACT, the binding signal is -0.013 E-score.

On to CCGACACA, for which the binding signal amounted to 0.295 E-score.

For the sequence AGCGGGTC, the binding signal was -0.0761 E-score.
